Test results reported in the supplement of paper PMC9446081.
Screen size: about 39,000 compounds; about 220 (0.56%) showed activity. The list shows a part of the results.

Each molecule was assayed on Escherichia coli K-12 BW25113 (assay: relative growth (OD600 normalised to plate interquartile mean) (fraction); higher = less growth inhibition, active = 0.2 or less). Conditions: 50 µM; LB; incubation time: overnight (16-24 h).
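Also: static incubation at 37 °C against the wild-type strain, values averaged over two biological replicates.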

| Compound | relative growth |
| --- | --- |
| COCC(=O)N(C)C[C@H]1Oc2cc(C#C[C@H](C)O)ccc2S(=O)(=O)N([C@@H](C)CO)C[C@@H]1C | inactive: 0.999 |
| Cc1noc(C)c1NC(=O)Nc1cccc2c1O[C@@H](CN(C)Cc1ccc(C(F)(F)F)cc1)[C@H](C)CN([C@H](C)CO)C2=O | inactive: 0.977 |
| C[C@@H]1CN([C@@H](C)CO)C(=O)Cc2cc(N(C)C)ccc2O[C@H]1CN(C)S(=O)(=O)c1ccc(Cl)cc1 | inactive: 0.994 |
| N#C[C@H]1N[C@H](CO)[C@H]1c1ccccc1 | inactive: 1.01 |
| COc1ccc(NC(=O)N(C)C[C@@H]2Oc3c(NC(=O)CCCCCC(=O)Nc4ccccc4N)cccc3C(=O)N([C@@H](C)CO)C[C@@H]2C)cc1 | inactive: 1.01 |
| CN1[C@@H]2c3ccc(-c4ccccc4)c(=O)n3C[C@H]1[C@H](CO)[C@H]2C(=O)NCCCN1CCOCC1 | inactive: 1.02 |
| C[C@H](CO)N1C[C@H](C)[C@H](CN(C)C(=O)Nc2cccc3ccccc23)OCCCC[C@H](C)Oc2ccc(NC(=O)Nc3ccc(C(F)(F)F)cc3)cc2C1=O | inactive: 1.06 |
| C[C@@H]1CN([C@H](C)CO)C(=O)Cc2cc(NC(=O)Nc3cccc4ccccc34)ccc2O[C@H]1CN(C)Cc1ccc(C(F)(F)F)cc1 | inactive: 1.02 |
| C[C@@H]1CN([C@H](C)CO)C(=O)c2cc(NC(=O)Nc3ccc(C(F)(F)F)cc3)ccc2O[C@@H](C)CCCCO[C@@H]1CN(C)Cc1ccncc1 | inactive: 1.02 |
| COc1ccc(C#Cc2cnc3c(c2)C(=O)N([C@H](C)CO)C[C@H](C)[C@H](CN(C)S(=O)(=O)c2ccc(F)cc2)O3)cc1OC | inactive: 1.02 |
| COc1cccc(OC)c1C(=O)NCCCO | inactive: 0.994 |
| COC(=O)C[C@@H]1CC[C@@H]2[C@H](COC[C@@H](O)CN2S(=O)(=O)c2ccccc2C)O1 | inactive: 1 |
| CCCNC(=O)N(C)C[C@@H]1Oc2ncc(-c3ccc(C(=O)N(C)C)cc3)cc2C(=O)N([C@@H](C)CO)C[C@H]1C | inactive: 0.999 |
| CS(=O)(=O)N1CCN(C[C@@H](O)C2CC2)CC1 | inactive: 1.01 |
| Cc1ccc(S(=O)(=O)N(C)C[C@H]2Oc3ccc(NC(=O)c4ccncc4)cc3CC(=O)N([C@H](C)CO)C[C@H]2C)cc1 | inactive: 0.974 |
| CC(C)CN1C[C@@H]2CCNCC[C@H]2S1(=O)=O | inactive: 0.958 |
| C[C@@H]1CCCCO[C@@H](CN(C)Cc2ccc(Cl)c(Cl)c2)[C@@H](C)CN([C@@H](C)CO)C(=O)c2cc(NC(=O)Nc3ccccc3)ccc2O1 | inactive: 1.02 |
| COc1ccc(S(=O)(=O)Nc2ccc3c(c2)C(=O)N([C@@H](C)CO)C[C@H](C)[C@@H](CN(C)C(=O)c2ccccc2)OCCCC[C@H](C)O3)cc1 | inactive: 1.01 |
| COc1cccc(NC(=O)N(C)C[C@@H]2Oc3ncc(C#Cc4ccncc4)cc3C(=O)N([C@H](C)CO)C[C@@H]2C)c1 | inactive: 1.01 |
| C[C@H](CO)N1C[C@H](C)[C@H](CN(C)C(=O)CCC(F)(F)F)OCCCC[C@H](C)Oc2ccc(NC(=O)C3CCCCC3)cc2C1=O | inactive: 0.995 |

| Compound | relative growth |
| --- | --- |
| C[C@@H]1CCCCO[C@H](CN(C)Cc2ccc(C(F)(F)F)cc2)[C@H](C)CN([C@H](C)CO)C(=O)c2cc(NS(=O)(=O)c3ccc(F)cc3)ccc2O1 | inactive: 1.02 |
| C[C@@H]1CN([C@H](C)CO)S(=O)(=O)c2ccc(C#C[C@@H](C)O)cc2O[C@H]1CN(C)C(=O)CN(C)C | inactive: 1.02 |
| C[C@H](CO)N1C[C@H](C)[C@H](CN(C)Cc2ccc(Oc3ccccc3)cc2)Oc2ccc(NS(=O)(=O)c3ccccc3)cc2C1=O | inactive: 0.984 |
| O=C(O)c1ccc(N[C@@H]2OC[C@H](O)[C@@H](O)[C@@H]2O)cc1 | inactive: 1.05 |
| Cc1noc(C)c1NC(=O)Nc1ccc2c(c1)C(=O)N([C@H](C)CO)C[C@@H](C)[C@H](CN(C)C(=O)Nc1ccc3c(c1)OCO3)OCCCC[C@@H](C)O2 | inactive: 1.03 |
| C[C@@H]1CN([C@@H](C)CO)C(=O)c2cccc(NC(=O)Nc3ccc(C(F)(F)F)cc3)c2O[C@@H]1CN(C)C(=O)NC1CCCCC1 | inactive: 0.978 |
| O=C(Cc1ccncc1)NCC[C@@H]1CC[C@@H](NC(=O)C2CCOCC2)[C@@H](CO)O1 | inactive: 0.994 |
| Nc1nc(C(=CCC(=O)O)C(=O)NC2C(=O)N3C(C(=O)O)=CCSC23)cs1 (stereo not drawn) | active: 0.0485 |
| C[C@@H]1CN([C@H](C)CO)C(=O)Cc2cc(NS(C)(=O)=O)ccc2O[C@@H]1CN(C)C(=O)Nc1ccccc1 | inactive: 0.986 |
| C[C@H]1CN([C@@H](C)CO)S(=O)(=O)c2ccc(-c3cncnc3)cc2O[C@H]1CN(C)C(=O)Cc1ccccc1 | inactive: 1.02 |
| CCOC(=O)C1=C(C)NC(=O)N[C@@H]1C | inactive: 0.987 |
| Cc1noc(C)c1S(=O)(=O)N(C)C[C@@H]1Oc2ccc(NC(=O)NC(C)C)cc2CC(=O)N([C@H](C)CO)C[C@H]1C | inactive: 0.982 |
| O=C1O[C@H](c2ccccc2)[C@H](c2ccccc2)N2[C@H]1[C@@H](C(=O)N1CCN(c3ncccn3)CC1)[C@]1(C(=O)Nc3ccc(C#CC4(O)CCCCCC4)cc31)[C@H]2c1ccccc1OCCO | inactive: 1.06 |
| C[C@@H]1CCCCO[C@@H](CN(C)S(=O)(=O)c2cn(C)cn2)[C@H](C)CN([C@@H](C)CO)C(=O)c2cc(N(C)C)ccc2O1 | inactive: 1.03 |
| CN1CCN(C(=O)C[C@@H]2C[C@@H]3c4cc(NS(=O)(=O)c5ccc(F)cc5)ccc4O[C@@H]3[C@@H](CO)O2)CC1 | inactive: 1 |
| Nc1ncnc2c1ncn2[C@H]1O[C@@H](CO)[C@H](O)[C@@H]1O | inactive: 0.993 |
| C[C@H](CO)N1C[C@H](C)[C@@H](CN(C)C(=O)Nc2ccccc2)Oc2ccc(NC(=O)CCCCCC(=O)Nc3ccccc3N)cc2CC1=O | inactive: 0.998 |
| CN[C@@H]1[C@@H](O)[C@@H](O[C@@H]2[C@@H](O)[C@H](O[C@H]3O[C@H]([C@@H](C)NC)CC[C@H]3N)[C@@H](N)C[C@H]2N)OC[C@]1(C)O | inactive: 0.57 |
| C[C@@H]1CN([C@H](C)CO)C(=O)c2cc(NS(=O)(=O)c3cccs3)ccc2O[C@@H](C)CCCCO[C@@H]1CN(C)S(=O)(=O)c1ccc(Cl)cc1 | inactive: 1.01 |
| COc1ccc(NC(=O)Nc2ccc3c(c2)C(=O)N([C@@H](C)CO)C[C@H](C)[C@H](CN(C)C(=O)Nc2ccc(F)cc2)OCCCC[C@@H](C)O3)cc1 | inactive: 1.05 |

| Compound | relative growth |
| --- | --- |
| COc1ccc(NC(=O)N(C)C[C@H]2Oc3ccc(NC(=O)CCCCCC(=O)Nc4ccccc4N)cc3CC(=O)N([C@@H](C)CO)C[C@@H]2C)cc1 | inactive: 0.974 |
| C[C@@H]1[C@@H](O)[C@@H](N(C)C)C[C@H]2COC[C@@H]21 | inactive: 1 |
| C[C@@H]1CCCCO[C@@H](CN(C)S(=O)(=O)c2ccc(Cl)cc2)[C@@H](C)CN([C@H](C)CO)C(=O)c2cc(NC(=O)Nc3ccccc3)ccc2O1 | inactive: 1.01 |
| C[C@H]1CN([C@@H](C)CO)C(=O)c2cc(NC(=O)Nc3ccc(C(F)(F)F)cc3)ccc2O[C@H]1CN(C)Cc1ccccc1 | inactive: 1.03 |
| CC1(C)S[C@H]2[C@@H](NC(=O)[C@@H](N)c3ccccc3)C(=O)N2[C@@H]1C(=O)O | inactive: 1.01 |
| Cc1noc(C)c1NC(=O)N(C)C[C@@H]1Oc2c(NC(=O)Nc3ccc(C(F)(F)F)cc3)cccc2C(=O)N([C@H](C)CO)C[C@@H]1C | inactive: 0.954 |
| C[C@H](CO)N1C[C@H](C)[C@@H](CN(C)Cc2cccc(C(=O)O)c2)Oc2cc(Br)ccc2S1(=O)=O | inactive: 1 |
| C[C@@H]1CN([C@H](C)CO)C(=O)c2cccc(NC(=O)c3ccncc3)c2O[C@@H]1CN(C)S(=O)(=O)c1cn(C)cn1 | inactive: 1.03 |
| C[C@@H]1CCCCO[C@@H](CN(C)S(=O)(=O)c2ccccc2)[C@@H](C)CN([C@H](C)CO)C(=O)c2cc(NC(=O)c3ccccc3)ccc2O1 | inactive: 1 |
| C[C@@H]1CN([C@H](C)CO)C(=O)Cc2cc(NS(=O)(=O)c3cn(C)cn3)ccc2O[C@H]1CN(C)C | inactive: 1.01 |
| CC(C)NC(=O)Nc1ccc2c(c1)CC(=O)N([C@H](C)CO)C[C@@H](C)[C@@H](CN(C)Cc1ccc(Oc3ccccc3)cc1)O2 | inactive: 0.984 |
| C[C@@H]1CCCCO[C@H](CN(C)Cc2ccc(C(=O)Nc3ccccc3N)cc2)[C@@H](C)CN([C@H](C)CO)C(=O)c2cc(NS(=O)(=O)c3ccc(F)cc3)ccc2O1 | inactive: 1.01 |
| O=C(CCCCCCNC(=O)c1ccc(NCc2cn(Cc3ccc(C(=O)c4ccc(Cn5cc(CNc6ccc(C(=O)NCCCCCCC(=O)NO)cc6)nn5)cc4)cc3)nn2)cc1)NO | inactive: 0.995 |
| C=CCOC(=O)N(C)C[C@H]1OCCCC[C@H](C)Oc2ccc(NC(=O)Nc3ccccc3)cc2C(=O)N([C@@H](C)CO[Si](C)(C)C(C)(C)C)C[C@H]1C | inactive: 1.07 |
| COc1ccc(CN(C)C[C@@H]2OCCCC[C@H](C)Oc3ccc(NS(=O)(=O)c4c(C)noc4C)cc3C(=O)N([C@H](C)CO)C[C@@H]2C)cc1 | inactive: 1 |
| O=C(C[C@@H]1CC[C@@H]2[C@H](COC[C@H](O)CN2C(=O)c2cccnc2)O1)NCC1CC1 | inactive: 1.01 |
| Cc1ccc(S(=O)(=O)N(C)C[C@H]2Oc3ncc(C#CCC(C)C)cc3C(=O)N([C@@H](C)CO)C[C@@H]2C)cc1 | inactive: 1.01 |
| C[C@@H]1CN([C@@H](C)CO)C(=O)Cc2cc(NC(=O)Cn3cnnn3)ccc2O[C@H]1CN(C)Cc1ccncc1 | inactive: 0.997 |
